This is one part of the list. Sequences were assembled here from the parent chain. Values near 0.05 are background.
B1: TEV protease; numbered along this chain (parent)
chain: MGESLFKGPRDYNPISSSICHLTNESDGHTTSLYGIGFGPFIITNKHLFRRNNGTLVVQSLHGVFKVKDTTTLQQHLVDGRDMIIIRMPKDFPPFPQKLKFREPQREERICLVTTNFQTKSMSSMVSDTSCTFPSGDGIFWKHWIQTKDGQCGSPLVSTRDGFIVGIHSASNFTNTNNYFTSVPKNFMELLTNQEAQQWVSGWRLNADSVLWGGHKVFMVKPEEPFQPVKEATQL

Variants of: B1
Experiment: raw area under fraction-flipped curve 0-4 h after induction (AUC4h, not background-subtracted), DNA-recorder readout of cleavage of the substrate (dimensionless); higher = more cleavage of the substrate by the protease variant
Details: temperature: 34 °C; time window: 0-4 h after rhamnose induction
Procedure: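 In vivo DNA recorder in E. coli TOP10(DE3) ΔrhaA at 34 °C. Each TEVp single-site mutant (parent TEVp 0) is paired with a single-site variant of the 7-mer TEVs (canonical ENLYFQ|S). The substrate sits between flexible linkers in a Bxb1-sfGFP-TEVs-SsrA fusion, so cleavage stabilises Bxb1 and speeds flipping of a recombination array, read by NGS. The value is the raw area under the fraction-flipped curve over 0-4 h after rhamnose induction (AUC4h), with ≥20 reads per time point. It is not background-subtracted; inactive controls average about 0.047.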
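Note: Bxb1 expression induced with 0.2% (w/v) L-rhamnose at OD600 near 0.5, cultures sampled hourly, flipped fraction per protease–substrate barcode pair counted by paired-end Illumina sequencing.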

Variant	area with substrate ENLYFQA	area with substrate ENLYFQC	area with substrate ENLYFQD	area with substrate ENLYFQG	area with substrate ENLYFQH	area with substrate ENLYFQK	area with substrate ENLYFQL	area with substrate ENLYFQM	area with substrate ENLYFQN	area with substrate ENLYFQP	area with substrate ENLYFQQ	area with substrate ENLYFQR	area with substrate ENLYFQS	area with substrate ENLYFQT	area with substrate ENLYFQV	area with substrate ENLYFQW	area with substrate ENLYFQY	area with substrate ENLYFQF	area with substrate ENLYFQI	area with substrate ENLYFQE
P155F	0.0499	0.0452	0.0532	0.0436	0.0511	0.0473	0.0499	0.0605	0.0499	0.0472	0.0639	0.0585	0.0556	0.0552	0.0773	0.0558	0.0399	–	–	–
S158H	0.0435	0.0803	–	–	0.0608	0.046	0.0549	0.0524	–	0.0514	–	0.0407	0.0532	0.056	0.0453	0.0579	–	–	–	–
T159Y	0.108	0.117	–	–	0.0762	–	0.064	0.0923	0.0721	0.0748	0.0663	0.0605	0.103	–	0.0625	0.0591	–	0.0507	0.0749	–
G162H	0.0986	–	0.0671	0.0876	0.0758	0.0433	0.0583	–	–	0.057	0.0784	0.057	0.0917	–	0.0461	–	0.093	0.0777	0.0541	–
I164E	0.0663	0.0478	0.0519	0.0544	0.0495	0.0534	0.0641	0.0513	0.0582	0.0415	–	0.0449	0.0542	0.0547	–	0.0453	0.0315	–	0.056	0.0422
I164H	0.0478	–	0.0373	0.0531	–	0.0449	0.0556	0.0718	0.0719	0.0361	0.0253	0.0573	0.0536	0.0604	0.0424	–	–	–	0.0556	–
I164L	0.086	0.0864	–	0.0919	–	0.0575	0.0651	0.0726	0.0718	0.0477	–	0.0625	0.0889	0.0476	0.0432	–	0.0924	0.0952	0.0602	–
V165D	0.0508	0.0438	0.0603	0.0519	–	–	0.0458	–	0.0585	0.0579	0.0448	–	0.0515	–	0.0471	–	–	–	0.0339	–
G166S	0.0321	–	–	–	0.0465	0.0489	0.0551	–	0.0445	0.0695	0.0578	0.0334	0.0529	0.0495	–	0.0463	0.0536	–	0.0506	–
I167F	0.0799	0.101	0.0592	0.0914	0.0732	0.0611	0.0594	–	0.055	–	–	0.0688	0.0829	0.0533	0.068	0.055	0.045	0.0556	0.0591	–
S169A	0.139	0.168	–	–	0.122	0.055	0.0619	0.144	–	–	–	0.041	0.121	0.0655	–	0.0663	0.0958	–	0.0691	–
S169C	0.0937	0.0819	–	0.0857	0.127	0.0646	0.0482	0.0711	0.067	0.0664	–	0.0627	0.0901	0.0707	–	0.0618	0.0646	0.063	–	–
S169N	0.0632	0.112	–	0.0569	–	0.0595	0.0658	0.0559	0.0372	0.0462	0.0625	0.0599	0.0616	0.0576	–	0.0634	0.0553	0.0355	–	0.0574
S171G	0.0889	0.0719	–	0.0537	–	–	0.0611	–	0.0597	–	–	0.0681	0.0682	–	–	0.0423	–	–	–	–
T176L	0.0688	0.0493	–	0.0667	0.0718	0.0738	0.0616	0.0633	0.0698	–	0.0598	0.0491	0.0731	0.0501	0.0657	0.095	0.0635	–	0.0289	–
N177V	0.117	0.164	0.0904	0.162	0.124	0.0678	0.0562	0.094	0.114	–	–	–	0.145	0.0569	0.069	0.101	0.0782	–	0.0545	–
N178I	0.0996	–	0.0649	0.0613	–	–	–	–	–	0.0644	–	–	0.0655	0.0511	–	–	–	–	–	–
F180I	0.0657	0.0653	–	0.0629	–	0.0533	0.042	0.0512	0.0473	–	–	0.0561	0.0628	0.0566	0.0558	–	0.0593	–	0.0519	–
T181G	0.0883	0.104	–	0.0802	0.0738	0.0436	0.0619	0.0703	–	0.0535	–	0.0607	0.09	0.0707	0.0551	0.0538	–	–	0.0521	–
S182W	0.0474	0.0331	0.0544	–	–	0.0281	0.0436	–	0.0473	0.0612	–	0.0524	0.0548	0.0633	–	0.0582	0.06	0.0624	–	–
V183C	0.13	–	0.0768	0.112	–	0.0588	0.0689	0.0907	0.0335	0.0524	–	0.0834	0.109	0.0779	0.0668	–	0.0624	0.0556	–	–
V183I	0.107	–	–	0.0637	0.0793	–	–	–	0.0829	0.057	0.0894	0.0428	0.0989	0.0614	0.0678	–	0.0649	–	–	–
E189D	0.107	0.116	0.0657	–	0.0929	0.0678	–	–	0.0789	–	–	0.0471	0.1	0.0618	0.067	–	0.0753	–	–	0.0648
E189V	0.0895	0.114	–	0.103	–	0.0678	0.0992	–	0.0766	0.0686	–	0.0569	0.0962	0.0656	–	0.0682	–	–	–	–
L191I	0.0744	0.104	–	–	0.0745	–	0.0602	0.0839	–	0.0624	–	0.053	0.0925	0.0775	–	0.0561	0.091	0.0798	0.0517	–
L191T	0.0858	0.0892	0.0612	0.157	–	0.0596	0.0529	0.0631	0.0847	0.0697	–	0.0577	0.0756	0.0745	–	–	–	0.068	–	–
